Results are given in words; binding and its absence hold for the method and conditions named. For some assays here: Binding seen in cells or lysates may run through a third protein. Some binding calls cover weakened binding; strength is not graded here.
Key:
[1] = molecular target: GST-WRN helicase domain (aa 500-946) (human) (UniProt Q14191); test: pull-down; GST or GST-WRN fragments prebound to glutathione sepharose beads, incubated with HeLa nuclear extract in the presence of DNase I, 3 h at 4°C; Western with mouse anti-p300; only the target purified
[2] = molecular target: GST-tagged WRN fragment aa 239-499 (acidic domain) (human) (UniProt Q14191); test: as above
[3] = molecular target: Werner protein (WRN), endogenous (human (endogenous in HeLa)) (UniProt Q14191); test: co-IP; HeLa nuclear extracts (250 µg) pre-treated with DNase I, or with or without ethidium bromide (50 µg/ml); rabbit anti-WRN or anti-p300 antibodies, 16 h at 4°C, rProtein G-Agarose; Western analysis
[4] = molecular target: GST-tagged WRN fragment lacking the p300-binding domain (WRN 488-1432) (human) (UniProt Q14191); test: far-Western, overlay or dot blot; GST-tagged WRN fragments resolved on SDS-PAGE, transferred to a membrane, blotted with 5 µg/ml p300 protein, probed with anti-p300; both purified
[5] = molecular target: GST-tagged WRN fragment aa 239-499 (acidic domain) (human) (UniProt Q14191); test: as above

By UniProt entry, the sequences of proteins in these tests, tags left out. Where a name states a change or a piece, a line headed by the entry shows the natural chain unless it says otherwise. Chains listed by the source or under a name are the forms on record and can include a tag or linker. Residues count along the entry.
UniProt Q14191: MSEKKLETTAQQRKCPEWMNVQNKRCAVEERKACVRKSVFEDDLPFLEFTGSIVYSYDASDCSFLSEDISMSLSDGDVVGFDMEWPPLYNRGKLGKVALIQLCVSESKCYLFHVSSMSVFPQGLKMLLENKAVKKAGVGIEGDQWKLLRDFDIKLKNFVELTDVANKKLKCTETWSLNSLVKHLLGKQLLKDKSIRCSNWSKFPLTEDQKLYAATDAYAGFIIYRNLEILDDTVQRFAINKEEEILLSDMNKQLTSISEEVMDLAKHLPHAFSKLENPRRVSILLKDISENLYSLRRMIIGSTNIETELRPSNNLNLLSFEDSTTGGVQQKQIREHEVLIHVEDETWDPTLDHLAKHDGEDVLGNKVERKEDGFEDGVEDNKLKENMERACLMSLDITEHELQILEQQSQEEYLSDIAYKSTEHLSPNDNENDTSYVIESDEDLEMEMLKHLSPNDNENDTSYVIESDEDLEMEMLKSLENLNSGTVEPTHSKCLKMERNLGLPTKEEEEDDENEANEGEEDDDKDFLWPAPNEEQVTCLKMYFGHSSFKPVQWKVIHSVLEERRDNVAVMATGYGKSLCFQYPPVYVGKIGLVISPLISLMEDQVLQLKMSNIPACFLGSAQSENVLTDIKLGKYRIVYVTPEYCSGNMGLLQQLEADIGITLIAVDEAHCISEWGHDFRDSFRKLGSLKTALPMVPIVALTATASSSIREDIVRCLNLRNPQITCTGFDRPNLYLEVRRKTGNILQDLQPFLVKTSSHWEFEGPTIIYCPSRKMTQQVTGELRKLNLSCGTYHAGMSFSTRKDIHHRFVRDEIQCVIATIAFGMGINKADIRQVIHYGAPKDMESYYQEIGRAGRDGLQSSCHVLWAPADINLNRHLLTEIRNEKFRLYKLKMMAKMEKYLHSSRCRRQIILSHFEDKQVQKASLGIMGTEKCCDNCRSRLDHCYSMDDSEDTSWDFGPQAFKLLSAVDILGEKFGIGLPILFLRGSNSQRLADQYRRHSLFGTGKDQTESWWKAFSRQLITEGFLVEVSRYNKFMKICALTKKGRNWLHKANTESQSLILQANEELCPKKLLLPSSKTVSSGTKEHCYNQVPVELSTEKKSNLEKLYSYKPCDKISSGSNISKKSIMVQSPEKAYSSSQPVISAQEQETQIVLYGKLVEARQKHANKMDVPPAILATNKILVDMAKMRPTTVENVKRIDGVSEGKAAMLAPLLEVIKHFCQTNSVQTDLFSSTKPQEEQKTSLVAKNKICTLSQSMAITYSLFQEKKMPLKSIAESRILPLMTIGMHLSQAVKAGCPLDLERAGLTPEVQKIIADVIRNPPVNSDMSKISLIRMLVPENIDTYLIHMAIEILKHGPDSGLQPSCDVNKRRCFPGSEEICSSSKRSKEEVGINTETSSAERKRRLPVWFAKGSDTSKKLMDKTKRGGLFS
GST-tagged WRN fragment aa 239-499 (acidic domain): residues 239-499 of Q14191
GST-tagged WRN fragment lacking the p300-binding domain (WRN 488-1432): residues 488-1432 of Q14191
GST-WRN helicase domain (aa 500-946): residues 500-946 of Q14191
UniProt Q09472: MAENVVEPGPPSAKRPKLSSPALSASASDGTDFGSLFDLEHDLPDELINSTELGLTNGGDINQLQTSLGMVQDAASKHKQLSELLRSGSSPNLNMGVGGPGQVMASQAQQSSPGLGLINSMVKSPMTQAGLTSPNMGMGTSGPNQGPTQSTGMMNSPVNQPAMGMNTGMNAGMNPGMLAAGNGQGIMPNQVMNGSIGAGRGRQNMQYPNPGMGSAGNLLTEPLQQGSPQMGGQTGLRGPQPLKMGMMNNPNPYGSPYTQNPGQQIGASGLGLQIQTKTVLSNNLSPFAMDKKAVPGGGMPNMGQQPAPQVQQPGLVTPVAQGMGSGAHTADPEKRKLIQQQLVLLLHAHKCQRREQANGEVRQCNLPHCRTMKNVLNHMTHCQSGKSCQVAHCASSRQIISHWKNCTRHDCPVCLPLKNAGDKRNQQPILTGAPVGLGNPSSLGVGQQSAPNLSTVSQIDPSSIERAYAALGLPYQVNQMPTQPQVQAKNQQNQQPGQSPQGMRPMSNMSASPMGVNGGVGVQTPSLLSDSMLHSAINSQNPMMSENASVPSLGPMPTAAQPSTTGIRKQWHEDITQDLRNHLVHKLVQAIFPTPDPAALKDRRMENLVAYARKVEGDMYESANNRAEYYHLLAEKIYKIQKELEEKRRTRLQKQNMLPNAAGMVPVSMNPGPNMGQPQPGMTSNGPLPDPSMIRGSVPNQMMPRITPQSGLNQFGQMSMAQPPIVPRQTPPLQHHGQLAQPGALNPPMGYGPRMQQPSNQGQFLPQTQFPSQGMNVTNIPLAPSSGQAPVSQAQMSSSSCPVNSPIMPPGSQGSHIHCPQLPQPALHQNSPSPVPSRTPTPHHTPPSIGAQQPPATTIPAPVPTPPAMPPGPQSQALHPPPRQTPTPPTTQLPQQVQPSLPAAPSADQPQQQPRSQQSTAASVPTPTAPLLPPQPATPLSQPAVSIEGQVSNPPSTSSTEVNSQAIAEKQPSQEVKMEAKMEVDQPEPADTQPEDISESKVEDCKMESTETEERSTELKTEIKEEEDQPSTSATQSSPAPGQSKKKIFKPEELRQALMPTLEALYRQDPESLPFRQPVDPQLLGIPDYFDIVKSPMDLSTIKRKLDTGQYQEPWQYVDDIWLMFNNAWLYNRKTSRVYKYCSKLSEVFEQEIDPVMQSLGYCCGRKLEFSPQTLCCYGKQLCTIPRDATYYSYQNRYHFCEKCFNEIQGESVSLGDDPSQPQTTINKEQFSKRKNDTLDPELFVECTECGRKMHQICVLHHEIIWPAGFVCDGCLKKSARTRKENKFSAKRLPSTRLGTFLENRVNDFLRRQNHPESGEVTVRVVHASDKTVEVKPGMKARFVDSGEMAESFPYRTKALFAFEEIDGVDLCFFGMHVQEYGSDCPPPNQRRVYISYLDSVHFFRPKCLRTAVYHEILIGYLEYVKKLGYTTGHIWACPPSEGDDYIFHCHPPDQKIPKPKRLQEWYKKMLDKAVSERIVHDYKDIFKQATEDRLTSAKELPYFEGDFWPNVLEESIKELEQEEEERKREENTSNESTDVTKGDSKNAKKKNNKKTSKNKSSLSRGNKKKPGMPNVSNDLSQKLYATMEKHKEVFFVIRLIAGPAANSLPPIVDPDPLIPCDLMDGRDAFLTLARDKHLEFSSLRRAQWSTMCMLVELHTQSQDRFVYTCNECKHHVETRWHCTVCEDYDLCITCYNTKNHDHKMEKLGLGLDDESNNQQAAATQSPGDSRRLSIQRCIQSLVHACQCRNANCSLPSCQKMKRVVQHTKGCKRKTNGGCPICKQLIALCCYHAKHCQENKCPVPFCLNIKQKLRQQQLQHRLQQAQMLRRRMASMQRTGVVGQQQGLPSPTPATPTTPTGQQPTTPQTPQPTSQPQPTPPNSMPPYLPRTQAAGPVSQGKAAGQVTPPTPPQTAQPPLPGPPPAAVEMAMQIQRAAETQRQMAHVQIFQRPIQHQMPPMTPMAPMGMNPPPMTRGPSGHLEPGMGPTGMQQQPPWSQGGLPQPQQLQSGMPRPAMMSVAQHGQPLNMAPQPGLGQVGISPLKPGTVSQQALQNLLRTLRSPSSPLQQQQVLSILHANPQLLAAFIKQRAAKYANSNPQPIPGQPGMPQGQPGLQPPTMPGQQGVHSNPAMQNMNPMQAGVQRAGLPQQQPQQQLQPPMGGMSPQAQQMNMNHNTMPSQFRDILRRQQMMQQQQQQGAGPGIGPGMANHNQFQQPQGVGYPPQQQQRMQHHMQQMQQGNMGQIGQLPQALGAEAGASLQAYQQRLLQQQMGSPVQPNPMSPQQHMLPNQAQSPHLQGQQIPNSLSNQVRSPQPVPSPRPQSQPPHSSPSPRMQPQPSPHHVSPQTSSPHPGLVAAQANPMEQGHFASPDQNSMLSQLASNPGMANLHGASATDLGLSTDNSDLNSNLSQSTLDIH

binding [1] | binding [2] | binding [3] | binding [4] | binding [5] | Substance
no binding | binds | binds | – | – | p300, endogenous (from UniProt Q09472 1-2414)
– | – | – | no binding (tested: 5 µg/ml) | binds | recombinant human p300 (histone acetyltransferase enzyme p300) (from UniProt Q09472 1-2414)

— paper PMC2276247
